Data as given in PubChem BioAssay AID1745845 (National Center for Advancing Translational Sciences (NCATS), 2022).
Values joined by “and” are separate entries in the source; they are usually repeats but may differ in a detail not shown here. Identical values can stand only once. Screen size: about 360,000 compounds; about 2,600 (0.72%) were called active. Inconclusive results, whose numbers are uncertain, are shown with a selection of clear calls. The call rests on the fitted dose curve; in most records, active means well fitted inhibition curve with a large enough effect; inconclusive means small, poorly fitted or top-dose-only effect; inactive means no such curve, though single readings can be large or run the other way. Potencies of inconclusive entries are doubtful fits and often do not repeat.

experiment: Primary qHTS for Inhibitors of ATXN expression; details: HEK-293 ATXN2-luciferase reporter, luminescence, 24 h; activity change, negative = inhibition: at 57 µM (top of the series); further: nearly all actives have a fitted effect of over 55% in size
Summary of the method: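 ATXN2-luciferase reporter cells (luciferase flanked by upstream and downstream ATXN2 gene portions) were treated 24 h at 37 °C with compounds at up to 57 uM. SteadyGlo luminescence gave expression; GF-AFC fluorescence gave viability.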
On the % scale 0 is the no-effect control and ±100 the full control effect; potency means the concentration at half of the fitted maximal effect; tags describe the fitted curve by direction and shape.

Potency, inconclusive:
CC(=O)NNC(=O)c1csc(Cc2c(Cl)sc3ccc(Cl)cc23)n1 25.1 µM [inhibitor, single point], CCc1nc2ccc(C(=O)NCc3ccc4c(c3)OCO4)cn2c1N(CCC(C)C)CCN(C)C 35.5 µM [inhibitor, single point], Cc1cccc(C(=O)N[C@H](C(=O)Nc2nc3ccccc3[nH]2)C(C)C)c1 13.4 µM [inhibitor, partial curve, poor fit], CCn1c2ccccc2c2cc(/C=N/NC(=O)c3ccncc3)ccc21 13.4 µM [inhibitor, partial curve, poor fit], Cc1ccc(-n2cc(CN(C)Cc3ncc[nH]3)c(-c3cccc(C)c3)n2)cc1 31.6 µM [inhibitor, partial curve], O=C(CSCC(=O)N1CCCc2ccccc21)Nc1nc(-c2ccccc2)cs1 37.7 µM [inhibitor, partial curve, poor fit], CC(C)=CCC12Oc3cc(O)ccc3C1(O)Oc1cc(O)c([C@H]3C=C(C)CC(c4ccc(O)cc4O)[C@H]3C(=O)c3ccc(O)cc3O)c(O)c1C2=O (stereo partly drawn) 35.5 µM [inhibitor, single point], CCC1=Nc2cc(C(=O)N3CCCCC3)ccc2Sc2ccc(C)cc21 39.8 µM [inhibitor, single point], COc1ccc(O)c(/C=N/NC(=O)c2c(C)nnn2-c2nonc2N)c1 0.474 µM [inhibitor, partial curve, poor fit], O=C(NCc1cccs1)c1nc2c(nnn2Cc2ccccc2Cl)c(=O)[nH]1 7.94 µM [inhibitor, partial curve, poor fit], COc1ccc(-c2nn(C)c(=O)c3ccccc23)cc1NC(=O)COc1ccc(C)cc1 31.6 µM [inhibitor, partial curve, poor fit], O=C(NC1CC1)c1cccc2c1C(=O)c1ccc(N3CCC(Cc4ccccc4)CC3)cc1S2(=O)=O 7.08 µM [inhibitor, partial curve, poor fit], COc1ccc(-c2nc3sc(CCNC(=O)c4cc(Cl)ccc4OC)c(C)n3n2)cc1 39.8 µM [inhibitor, single point], COc1ccc(C(=O)CC2(O)C(=O)N(Cc3ccccc3Cl)c3ccccc32)cc1 (stereo not drawn) 20 µM [inhibitor, partial curve, poor fit], N/C(=N\S(=O)(=O)c1cc(C(F)(F)F)cc(C(F)(F)F)c1)c1ccc(Cl)cc1 37.7 µM [inhibitor, single point], CC(C)(C)OC(=O)N1CCCN(C(c2ccnc3ccccc23)c2nnnn2-c2ccc3c(c2)OCCO3)CC1 (stereo not drawn) 8.91 µM [inhibitor, single point], CCC1CCCCN1CC(=O)N1CCCc2c1c(=O)oc1ccc(OCc3ccccc3)cc21 (stereo not drawn) 39.8 µM [inhibitor, single point], COc1cccc(-c2cc(C(=O)Nc3cc(OC)c(OC)c(OC)c3)on2)c1 22.4 µM [inhibitor, single point], CCCS(=O)(=O)c1ncc(Cl)c(C(=O)Nc2scc(-c3ccccc3)c2C(=O)OCC)n1 20 µM [inhibitor, single point], CN(Cc1ccccc1)c1ccc(C(CC(N)=O)NC(=O)c2ccc(Br)cc2)cc1[N+](=O)[O-] (stereo not drawn) 39.8 µM [inhibitor, single point], O=C(c1ccccc1)C(Cn1cncn1)C(Sc1ccccc1)c1ccccc1 (stereo not drawn) 31.6 µM [inhibitor, partial curve, poor fit], CC(C)C[C@@H](CN1CCC[C@@H]1CN1C(=S)NC[C@@H]1Cc1ccc(O)cc1)N1C[C@H](Cc2ccc(O)cc2)N(CC2CCCCCC2)C1=S 31.6 µM [inhibitor, single point], CN(CC(=O)Nc1ccc(F)c(F)c1F)C(=O)CCc1nc2sc3c(c2c(=O)[nH]1)CCCC3 35.5 µM [inhibitor, single point], CCOC(=O)C1=CCN(S(=O)(=O)c2ccc(C)cc2)C1c1cccc(Br)c1 (stereo not drawn) 11.2 µM [inhibitor, partial curve, poor fit], CCCCC(=O)/C=C/n1c(=S)oc2ccccc21 39.8 µM [inhibitor, single point], Cc1ccc(NC(=O)CNC(=O)c2cccc(C)c2)nc1 31.6 µM [inhibitor, single point], Cc1ccc(CNC(=O)c2ccc3c(c2)nc(C)n3-c2cc(C)cc(C)c2)cc1 39.8 µM [inhibitor, single point], Cc1c(C(=O)NCc2cccc(Cl)c2)sc(=O)n1Cc1cccc(F)c1 12.6 µM [inhibitor, partial curve], Cc1c(C(=O)N2c3ccccc3Sc3ccccc32)cccc1[N+](=O)[O-] 21.2 µM [inhibitor, partial curve, poor fit], COc1cc(OC)cc(C(=O)Nc2ccc3nc(N4CCCCC4)cc(C)c3c2)c1 11.2 µM [inhibitor, partial curve], N#CC1=C(SCC(N)=O)NC2=C(C(=O)c3ccccc32)C1c1ccc(Cl)cc1 (stereo not drawn) 31.6 µM [inhibitor, partial curve, poor fit], CN(C(=O)CSc1nnc(-c2ccccc2)c(-c2ccccc2)n1)C1CCS(=O)(=O)C1 (stereo not drawn) 31.6 µM [inhibitor, partial curve, poor fit], Cc1ccc(N2CCN(C(=O)Nc3cccc([N+](=O)[O-])c3)CC2C)cc1 (stereo not drawn) 1.68 µM [inhibitor, partial curve, poor fit], COc1cc2c(O)c3c(c(-c4ccc5c(c4)OCO5)c2cc1OC)C(=O)OC3 3.55 µM [inhibitor, partial curve, poor fit], CC(=O)Nc1cc(NC(C)=O)cc(-c2nc3ccccc3[nH]2)c1 25.1 µM [inhibitor, single point]

Potency, inactive:
O=C1Cc2ccccc2Sc2c(OCCN3CCCCC3)cccc21, Oc1ccc(/C=N/N(Cc2ccccc2)c2ccccc2)c(O)c1O, COc1ccc(S(=O)(=O)N(CCc2ccccc2)CC(=O)Nc2cccc(OC)c2)cc1, COc1cc(/C=N/Nc2nc(Nc3ccc(C)cc3)nc(-n3nc(C)cc3C)n2)cc(OC)c1OC, COc1ccc2cc3cc(C(=O)NCc4ccc5c(c4)OCO5)oc3nc2c1, CCOc1ccc(S(=O)(=O)Nc2cccc(OC)c2)cc1, CCN(CC)S(=O)(=O)c1ccc(NC(=S)NC(=O)C(C)C)cc1, CCOC(=O)c1c(-c2cccc([N+](=O)[O-])c2)csc1NC(=O)CCCOc1ccccc1, C=CCN1C(=O)c2ccc(C(=O)NCCOc3ccccc3F)cc2C1=O, Cc1ccc(CN(C(=O)COc2cccc([N+](=O)[O-])c2)c2ccccn2)cc1, Cc1ccc(Nc2c(-c3ccncc3)nc3ccc(C)cn23)cc1, NC(=O)CC(NC(=O)Cc1ccc(Cl)cc1)c1ccc(N2CCN(c3ccccn3)CC2)c([N+](=O)[O-])c1 (stereo not drawn), O=C(Nc1cccnc1)c1ccc(COc2ccccc2Cl)o1, COc1ccc(CNC(=O)C2CCN(C(=O)c3csc(Nc4ccc(C)cc4)n3)CC2)cc1, Cc1ccc(-c2csc(N=C(N)N)n2)cc1, NC(=S)N/N=C/c1cccc(/C=N/NC(N)=S)c1, CSc1nnc(-c2ccccc2)n1C, CSc1cccc(N2CC(C(=O)Nc3cccc(S(=O)(=O)N4CCCC4)c3)CC2=O)c1 (stereo not drawn), O=C(CSc1ccccc1)Nc1nnc(COc2ccc(Cl)cc2)s1, CCC1=NN(C(=O)Cc2ccc([N+](=O)[O-])cc2)C(O)(C(F)(F)F)C1 (stereo not drawn), Cc1cc(C)c2cc(CN(Cc3cccnc3)C(=O)c3ccc(F)cc3)c(Cl)nc2c1, Cc1ccc(S(=O)(=O)N2CCN(C(=O)CNC(=O)c3ccc(Cl)cc3)CC2)cc1, C=C(C)COc1ccc(-c2n[nH]c(C)c2-c2ccc(Br)cc2)c(O)c1, CCOC(=O)c1c(C)oc2nc(C)nc(Nc3ccc(CC)cc3)c12, COc1ccc(CN(C(=O)c2ccco2)c2ccccc2)cc1, O=C(Nc1cc(-c2nc3ncccc3o2)ccc1Cl)c1ccc([N+](=O)[O-])o1

Potency, active:
CCc1ccc(/C=C/C(=O)c2cc(Br)ccc(=O)c2O)cc1 31.6 µM, O=C(Nc1ccccc1Cl)/C(Cl)=C(\Cl)S(=O)c1ccccc1 (stereo not drawn) 3.55 µM, CCC1CCCCN1CCCNC(=O)c1cc2c(Cl)nc3ccccc3c2s1 (stereo not drawn) 22.4 µM and 31.6 µM, CCOC(=O)c1c(NC(C)=O)sc2c1CCC(C=O)=C2Sc1ccccc1 28.2 µM, CCCCOc1ccc(C(=O)CCN2CCOCC2)cc1 18.9 µM

Activity change, negative = inhibition, inconclusive:
Cn1nc(C(F)(F)F)c(C(=O)Nc2ccc(F)cc2)c1Cl -40% [inhibitor], COCc1cc(C)nc(SCC(=O)Nc2nc(C)cs2)c1C#N -61.2% [inhibitor]
